# According to the supplement of paper PMC7826260:
# This is one part of the list. Each Rep nickase domain was tested in vitro on the same pool of single strands at 3 µM enzyme and 37 °C for 1 h; the strands have 90 letters, of which the middle is given. Numbers give uncut DNA relative to the enzyme-free pool, as log2; strong cutting gives strongly negative numbers. There is no active / inactive call. Because reads are shares of a total, they shift together; where an enzyme cuts many sequences, the uncut ones exceed 0.
# Legend:
# Assay in all cases: uncleaved DNA left, log2 of reads against the no-enzyme library (log2 ratio); higher = less cleavage (more negative = more Rep cleavage of the k-mer); sequences stand for … in CTCGTCCG…ACCGGAGA
# [1] = system: T1, Rep nickase domain of Muscovy duck circovirus
# T1 sequence (protein, residues 1-111, tag omitted): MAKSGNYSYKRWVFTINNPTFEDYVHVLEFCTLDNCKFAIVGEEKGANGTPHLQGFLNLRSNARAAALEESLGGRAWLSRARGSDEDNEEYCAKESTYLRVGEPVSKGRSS
# Method: (§1)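 A pool of 90-nt single-stranded DNAs with seven random bases just before the constant AC of the nick site (name = the seven bases) was cut by 3 µM recombinant His6-SUMO-tagged Rep nickase domain (300 nM DNA, 50 mM HEPES pH 8.0, 50 mM NaCl, 1 mM MnCl2, 1 h, 37 °C, three replicates). Uncut DNA was amplified and sequenced.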
# [2] = system: T2, Rep nickase domain of banana bunchy top virus
# T2 sequence (protein, residues 1-94, tag omitted): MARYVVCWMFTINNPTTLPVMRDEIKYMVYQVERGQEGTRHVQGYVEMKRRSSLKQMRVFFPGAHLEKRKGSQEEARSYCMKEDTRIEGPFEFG
# Method: as §1
# [3] = system: T3, Rep nickase domain of cabbage leaf curl virus
# T3 sequence (protein, residues 1-116, tag omitted): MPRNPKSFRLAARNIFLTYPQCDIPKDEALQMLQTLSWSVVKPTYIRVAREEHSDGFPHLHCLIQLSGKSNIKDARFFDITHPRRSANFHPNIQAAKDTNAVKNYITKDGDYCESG
# Method: as §1
# [4] = system: T4, Rep nickase domain of chickpea chlorotic dwarf virus
# T4 sequence (protein, residues 1-124, tag omitted): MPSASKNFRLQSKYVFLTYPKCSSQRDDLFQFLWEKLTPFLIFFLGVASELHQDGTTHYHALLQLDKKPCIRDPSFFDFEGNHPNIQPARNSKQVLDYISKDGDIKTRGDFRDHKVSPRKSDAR
# Method: as §1
# [5] = system: T5, Rep nickase domain of faba bean necrotic yellows virus
# T5 sequence (protein, residues 1-98, tag omitted): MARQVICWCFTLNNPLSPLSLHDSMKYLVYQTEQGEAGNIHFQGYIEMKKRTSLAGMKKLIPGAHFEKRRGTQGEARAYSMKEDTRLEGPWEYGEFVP
# Method: as §1
# [6] = system: T6, Rep nickase domain of maize striate mosaic virus
# T6 sequence (protein, residues 1-117, tag omitted): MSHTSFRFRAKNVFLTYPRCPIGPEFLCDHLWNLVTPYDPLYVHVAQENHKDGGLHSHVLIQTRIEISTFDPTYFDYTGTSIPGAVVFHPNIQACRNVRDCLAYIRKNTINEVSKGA
# Method: as §1
# [7] = system: T7, Rep nickase domain of porcine circovirus 2
# T7 sequence (protein, residues 2-116, tag omitted): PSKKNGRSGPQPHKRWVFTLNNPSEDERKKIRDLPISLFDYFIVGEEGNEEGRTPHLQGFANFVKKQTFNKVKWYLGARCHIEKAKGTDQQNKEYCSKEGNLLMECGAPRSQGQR
# Method: as §1
# [8] = system: T8, Rep nickase domain of tomato golden mosaic virus
# T8 sequence (protein, residues 1-124, tag omitted): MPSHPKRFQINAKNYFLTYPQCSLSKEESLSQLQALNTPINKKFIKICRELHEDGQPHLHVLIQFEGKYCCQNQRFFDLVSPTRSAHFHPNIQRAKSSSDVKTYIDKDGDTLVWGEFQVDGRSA
# Method: as §1
# [9] = system: T9, Rep nickase domain of tomato yellow leaf curl virus
# T9 sequence (protein, residues 1-136, tag omitted): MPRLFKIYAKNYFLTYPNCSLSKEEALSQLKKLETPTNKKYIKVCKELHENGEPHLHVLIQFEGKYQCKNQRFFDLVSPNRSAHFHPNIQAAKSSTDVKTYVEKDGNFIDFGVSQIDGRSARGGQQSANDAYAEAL
# Method: as §1
# [10] = system: T10, Rep nickase domain of wheat dwarf virus
# T10 sequence (protein, residues 1-137, tag omitted): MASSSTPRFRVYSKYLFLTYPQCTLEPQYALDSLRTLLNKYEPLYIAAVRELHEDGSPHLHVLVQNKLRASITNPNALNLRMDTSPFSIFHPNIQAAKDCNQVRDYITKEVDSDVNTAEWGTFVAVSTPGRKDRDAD
# Method: as §1
Sequence,uncleaved DNA left (log2) [1],uncleaved DNA left (log2) [2],uncleaved DNA left (log2) [3],uncleaved DNA left (log2) [4],uncleaved DNA left (log2) [5],uncleaved DNA left (log2) [6],uncleaved DNA left (log2) [7],uncleaved DNA left (log2) [8],uncleaved DNA left (log2) [9],uncleaved DNA left (log2) [10]
CGAACCT,0.0804,-0.00143,-0.0994,-1.23,-0.0233,-0.174,-0.434,-0.209,0.0263,0.15
CGTCTCG,0.0287,0.155,-0.626,-0.3,0.104,-0.647,0.239,0.0604,0.0408,-0.0545
CCACACG,0.0424,0.0207,-0.843,-0.136,0.0346,-0.833,0.109,0.0388,-0.0675,-0.194
GAATGTG,0.141,-0.0353,-0.878,-0.301,0.0358,-0.933,0.059,-0.063,0.0801,-0.162
AATGTTG,0.00494,-0.074,0.122,0.275,0.0255,0.0205,0.217,0.00523,0.044,0.0629
CCCCCGC,-0.205,-0.246,-0.454,-0.801,-0.252,-0.94,-0.307,-0.138,-0.191,-0.162
TTAATGC,0.0431,-0.0238,-0.312,-0.742,0.071,-1.2,0.143,-0.0835,0.0149,-0.07
GGCCCCT,0.179,0.129,0.522,0.814,0.0955,1.67,0.0942,0.0516,0.2,0.229
GCTACAC,-0.0656,-0.0167,0.116,0.088,-0.0316,0.315,-0.0349,0.0244,-0.0315,0.0532
TCTCTAT,-0.00359,-0.124,0.206,-0.538,-0.0695,-0.251,-0.131,0.0581,-0.0719,0.0357
GCGCCAA,0.0614,0.109,0.0732,0.503,0.0118,0.519,0.0185,0.00329,0.206,0.162
TAGATGT,0.0961,-0.177,-0.348,-0.875,-0.0459,0.324,-3.34,-0.00428,-0.0365,-0.0151
CAGATTG,0.185,0.106,0.0548,0.559,0.0429,0.388,0.188,0.196,-0.0339,0.094
ATAGACC,-0.033,0.181,0.0979,0.483,0.0671,0.21,0.0814,0.0547,0.0282,0.062
ATCCTCA,-0.0533,0.115,-0.0192,-0.795,0.0578,-0.334,0.0496,-0.022,0.111,0.0777
ACTGTCA,-0.0157,0.0799,0.0185,-0.206,0.0322,0.0984,-0.0416,0.0367,0.0158,0.0504
TGCAGAC,-0.0486,-0.0784,0.101,0.444,-0.0505,0.201,0.0775,-0.0745,-0.103,-0.09
CACGTTA,-0.033,-0.276,-0.243,-2.28,-0.0418,-0.69,-0.275,-0.0314,-0.0754,-0.141
TTCATGG,0.0459,0.0723,0.494,1.12,0.0383,1.08,0.221,0.138,-0.0173,0.0642
CACGTGT,0.0592,-0.0373,-0.345,-0.787,0.0178,-0.508,-0.0821,0.00273,-0.0387,-0.162

Sequence,uncleaved DNA left (log2) [1],uncleaved DNA left (log2) [2],uncleaved DNA left (log2) [3],uncleaved DNA left (log2) [4],uncleaved DNA left (log2) [5],uncleaved DNA left (log2) [6],uncleaved DNA left (log2) [7],uncleaved DNA left (log2) [8],uncleaved DNA left (log2) [9],uncleaved DNA left (log2) [10]
TCTATGT,0.0216,-0.0401,-0.0365,-0.199,-0.158,-0.543,-0.34,-0.075,-0.152,-0.0888
TAAATAC,0.00226,-0.035,-1.02,-2.65,-0.0467,-0.793,-0.0391,0.0191,0.00178,-0.479
TTGCTTA,0.101,0.00875,-0.324,-1.03,0.191,-0.98,0.0494,-0.014,0.121,0.113
CGTGTCG,-0.0294,-0.235,-0.816,-0.288,-0.182,-0.924,0.0619,-0.285,-0.07,-0.138
AACTTGG,-0.0553,-0.0775,-0.422,-0.477,0.00626,-1.15,-0.0113,-0.0165,0.0913,-0.00604
TGGCCCA,-0.125,-0.00436,0.295,0.314,-0.107,0.768,-0.0641,-0.0844,0.0354,0.0565
CAAAGCG,-0.0708,-0.00652,-0.817,-0.0785,0.107,-0.917,0.153,0.0316,0.0471,-0.0782
AGCATAT,0.134,0.097,0.0162,-0.288,-0.0192,0.216,-0.366,-0.0641,0.0714,0.0238
GCATTGA,-0.0259,-0.0199,-0.348,-0.334,0.0204,-0.89,0.0217,-0.0433,0.0523,-0.107
TTCCGAC,0.101,-0.0173,0.417,0.383,0.088,-0.0079,0.135,-0.0564,0.0553,0.15
TTTCTTG,0.0449,-0.0289,-0.389,-1.9,0.0589,-1.09,-0.0312,-0.153,0.0592,-0.0805
GAACTCT,-0.0595,-0.00681,-0.249,-2.34,-0.00397,0.702,-0.232,-0.0686,-0.0424,-0.0791
TTAGATC,0.222,0.129,0.271,0.138,0.183,-0.0618,0.173,0.075,0.0895,0.112
CGACGTA,-0.134,0.00391,-0.000417,0.565,-0.0981,1.4,0.0321,-0.0502,-0.159,0.0349
GGGTGGT,-0.177,-0.097,0.54,1.53,-0.165,2.04,-0.645,-0.0683,-0.143,-0.0667
TCGAGCT,-0.0337,-0.0686,0.101,-0.0249,0.0087,0.228,-0.18,0.0172,-0.0589,-0.0346
GGACGGG,0.112,-0.0202,0.636,1.38,0.0382,1.68,0.194,-0.0259,-0.0455,0.0159
GGGGGCG,0.00279,0.0207,-0.18,0.816,0.115,0.533,0.108,0.0833,-0.0747,-0.0714
TCCACCG,-0.116,-0.152,-0.84,-0.843,-0.136,-0.919,0.00321,-0.121,-0.154,-0.189
GACCCAA,0.0713,0.186,0.629,1.1,0.126,1.23,0.0586,0.104,0.212,0.282

Sequence,uncleaved DNA left (log2) [1],uncleaved DNA left (log2) [2],uncleaved DNA left (log2) [3],uncleaved DNA left (log2) [4],uncleaved DNA left (log2) [5],uncleaved DNA left (log2) [6],uncleaved DNA left (log2) [7],uncleaved DNA left (log2) [8],uncleaved DNA left (log2) [9],uncleaved DNA left (log2) [10]
CAAGAAT,0.103,-0.107,-0.0016,-0.493,0.0372,0.776,0.0386,-0.0439,-0.0714,-0.0642
GCGAAAC,0.0474,0.179,0.236,0.438,0.102,0.1,0.204,0.112,0.204,0.162
CCCTAAG,0.173,0.137,-0.636,0.0364,0.122,-0.927,0.259,0.169,0.326,0.0448
GGAGGTG,0.135,0.119,0.0679,0.215,0.0743,0.187,0.0762,0.0907,-0.00556,0.0215
CCCTGTC,-0.0642,-0.224,-0.0604,-0.312,-0.0367,-0.833,-0.203,-0.128,-0.214,-0.235
ACATGTC,0.0388,-0.0526,-0.391,-0.426,0.0423,-0.985,0.0658,-0.0333,-0.0772,-0.0933
TCCCTGT,-0.0864,-0.166,0.189,-0.364,-0.173,-0.304,-0.133,-0.118,0.0348,-0.0239
AGATGTC,0.11,-0.0633,0.235,0.55,0.085,-0.0379,0.0695,-0.0364,-0.0577,-0.11
CTCCGGC,-0.0552,0.00805,-0.00491,0.121,0.0304,0.0357,-0.04,0.0363,-0.0716,-0.0419
CGTCACA,0.102,0.0522,0.0693,-0.752,-0.0929,-0.174,-0.0811,-0.073,-0.0585,0.0753
ACCTATG,0.196,0.119,-0.656,-0.246,0.205,-0.901,0.229,-0.00346,0.124,-0.046
AATCGAA,-0.00269,0.00581,-0.241,-0.757,-0.0151,-0.935,-0.0398,-0.00942,-0.0634,-0.129
TCGGCAG,0.0182,0.00336,-0.221,-0.151,0.0922,-0.489,0.2,0.0867,-0.0159,0.147
AAATATT,-4.14,-4.44,-5.18,-3.76,-3.25,-4.08,-4.98,-4.51,-3.66,-4.87
ACCACGA,0.0206,-0.113,-0.286,-0.403,-0.0674,-1.04,-0.101,-0.103,-0.249,-0.28
TGATGGG,0.0632,-0.0276,-0.457,-0.591,0.0693,-0.831,0.155,0.0516,0.0602,-0.114
TGGTTAC,-0.0406,0.0471,0.256,0.491,-0.119,1.61,-0.0241,0.135,0.0516,-0.0258
CTGGTGC,-0.0504,-0.118,-0.469,-0.503,-0.0914,-0.944,0.0782,-0.0449,-0.0209,-0.163
